Data published in PubChem BioAssay AID463173 (ICCB-Longwood Screening Facility, Harvard Medical School, 2010).
Hit rate of the full screen: of about 52,000 compounds, about 1,700 (3.3%) were called active. Rule as the data show it: active = survival mostly below about 52% (no sharp cut-off); inactive = mostly above about 56%. This is one part of the list.

Test system: Wild type
Test: S. aureus survival, RN4220 and DeltatarO strains – OD600, teichoic acid synthesis inhibitors, primary screen (AID 463173)
Settings: S. aureus RN4220 wild type/DeltatarO growth, OD600, 18 h, hits give low values, screened at 18.75 µg/mL (by protocol)

Row | Structure (SMILES) | survival
1 | Cc1noc(/C=C/N(C)C)c1S(=O)(=O)N1CCCC(C(=O)Nc2ccc(F)cc2F)C1 (stereo not given) | inactive: 76%
2 | CCS(=O)(=O)c1ncc(Cl)c(C(=O)N2CCN(c3cccc(Cl)c3)CC2)n1 | inactive: 18%
3 | Fc1ccc(C(c2nnnn2Cc2ccccc2)N2CCSCC2)cc1 (stereo not given) | inactive: 105%
4 | O=C(c1ccco1)N1CCN(C(c2coc3ccc(Cl)cc3c2=O)c2nnnn2C2CCCC2)CC1 (stereo not given) | inactive: 113%
5 | CCN(CC)c1nc(-c2ccccc2)nc2ccccc12 | inactive: 108%
6 | Cc1ccc(NCc2ccccc2-c2nnc(-c3ccccc3Cl)o2)c(C)c1 | inactive: 83%
7 | NC(=O)C1(N2CCCCC2)CCN(C(=O)Nc2ccc(C(F)(F)F)cc2)CC1 | inactive: 114%
8 | Cc1ccc(CNS(=O)(=O)c2cc(C(=O)Nc3cccc(C(F)(F)F)c3)ccc2F)cc1 | inactive: 112%
9 | N#CC(Cc1cccs1)c1nc2ccccc2[nH]1 (stereo not given) | inactive: 107%
10 | COc1ccc(S(=O)(=O)N2Cc3ccccc3CC2C(=O)N2CCOCC2)cc1OC (stereo not given) | inactive: 107%
11 | Cc1cc(C)c2c(=O)cc(CSc3nnc(COc4ccccc4C)n3C)[nH]c2c1 | inactive: 80%
12 | C1CCCN(c2nc3nonc3nc2N2CCCCCC2)CC1 | inactive: 93%
13 | COc1ccccc1-c1cc(C(F)(F)F)nc(S(=O)(=O)CCCC(=O)Nc2cc(OC)c(OC)c(OC)c2)n1 | inactive: 147%
14 | CCOC(=O)c1ccc(N2C(=O)c3n[nH]c(-c4cccs4)c3C2c2ccc(C(C)C)cc2)cc1 (stereo not given) | inactive: 92%
15 | O=c1cc(-c2ccccc2)c2cc(Cl)c3c(c2o1)CN(Cc1ccccc1)CO3 | inactive: 74%
16 | COc1ccc(CC(=O)NCc2ccc3c(c2)CCN3C(=O)c2ccc(Cl)cc2)cc1OC | inactive: 93%
17 | Cc1ccc2c(c1)c1c(c(=O)n(-c3ccccc3C)c(=O)n1CC(=O)NCc1ccccc1)n2C | inactive: 74%
18 | CCc1cc2ccccc2nc1SCC(=O)N1CCCC1 | inactive: 101%
19 | Cc1ccc(OCCCn2c(CCNC(=O)C3CCCCC3)nc3ccccc32)c(C)c1 | inactive: 95%
20 | COC(=O)c1ccc(NCC(=O)c2ccccc2)cc1 | inactive: 50%
21 | CCOC(=O)c1c(Oc2ccc(OC)cc2)nnc(-c2ccccc2)c1-c1ccccc1 | inactive: 91%
22 | Cc1cc(-c2ccc(C)c(S(=O)(=O)N(C)c3ccc(C)c(C)c3)c2)on1 | inactive: 68%
23 | COc1ccccc1NC(=O)Cn1c(=O)n(Cc2ccco2)c(=O)c2cccnc21 | inactive: 66%

Row | Structure (SMILES) | survival
24 | O=S(=O)(c1ccccc1)N(c1cccnc1)S(=O)(=O)c1ccccc1 | inactive: 103%
25 | COc1ccc(OC)c(NC(=O)CN2C(=O)c3ccccc3Sc3ccc(C(=O)N4CCCC4)cc32)c1 | inactive: 129%
26 | COc1ccc(N(Cc2cccs2)C(=O)Nc2ccccc2)cc1 | inactive: 82%
27 | COc1ccc(-c2ccc(CNc3ccc4[nH]c(=O)[nH]c4c3)o2)cc1Cl | inactive: 89%
28 | Cc1nn(CC(=O)NC2CCCCC2)c(=O)c2cc3cc(F)ccc3n12 | inactive: 80%
29 | CCc1ccc(Oc2nc3c(C)cccn3c(=O)c2/C=C(\C#N)c2nc3ccccc3[nH]2)cc1 | inactive: 74%
30 | Cc1ccc(-n2nc(C)c3c(C)cc(=O)n(CC(=O)Nc4ccc(Br)cc4F)c32)cc1 | inactive: 135%
31 | COc1ccc(S(=O)(=O)c2c(Nc3ccc(C)cc3)sc(C(=O)c3ccc(C)cc3)c2N)cc1 | inactive: 119%
32 | Cc1cc(=O)n2[nH]c(NCc3ccc(F)cc3)nc2n1 | inactive: 111%
33 | Cc1cccc(C(=O)NCC(c2ccc3c(c2)OCO3)N2CCN(c3ccccc3F)CC2)c1 (stereo not given) | inactive: 70%
34 | COc1cc(-c2noc(CSc3nc(-c4ccccc4)cc(=O)[nH]3)n2)cc(OC)c1OC | inactive: 59%
35 | COc1ccc(NC(=O)c2sc3nc4c(cc3c2N)CN(C(C)C)CC4)c(OC)c1 | inactive: 86%
36 | Cc1ccc(Cl)cc1NC(=O)Nc1c(C)n(C)n(-c2ccccc2)c1=O | inactive: 133%
37 | Cc1csc(NC(=O)c2c(O)c3cccc4c3n(c2=O)CCC4)n1 | inactive: 113%
38 | CCOC(=O)CSc1nc2ccc(NC(=O)c3ccc(F)cc3)cc2s1 | inactive: 88%
39 | O=C(CCCn1c(=O)c2cccn2c2ccc(F)cc21)NCCc1ccccc1 | inactive: 55%
40 | CCC(=O)NC1CCNCC1 | inactive: 127%
41 | O=C1COc2ccccc2N1Cc1ccc(OC(F)(F)F)cc1 | inactive: 110%
42 | NN(CCC(=O)N1CCCCC1)C1=NS(=O)(=O)c2ccccc21 | inactive: 101%
43 | COc1ccc(N/C=C\C(=O)c2ccc3c(c2)OCO3)cc1 | inactive: 108%
44 | COc1ccc(-c2noc(-c3ccc(NCc4ccco4)c([N+](=O)[O-])c3)n2)cc1 | inactive: 82%
45 | COc1ccc(NC(=O)Cn2cc(S(=O)(=O)c3ccc(C)cc3)c(=O)c3ccccc32)cc1OC | inactive: 96%
